Source: the supplement of paper PMC3334620
The full ranking holds about 33,000 sequences; the median of “E-score (-0.5 to 0.5)” is about -0.032, and the highest 2% start at about 0.36. This is one part of the list.

target: T1, Sko1 (UniProt Q02100); assay: PBM E-score (8-mer binding enrichment) (E-score (-0.5 to 0.5)); higher = stronger / more preferred TF binding; most listed sequences are background and not binding sites; details: protein concentration: 200 nM; construct: GST-full length
T1 sequence: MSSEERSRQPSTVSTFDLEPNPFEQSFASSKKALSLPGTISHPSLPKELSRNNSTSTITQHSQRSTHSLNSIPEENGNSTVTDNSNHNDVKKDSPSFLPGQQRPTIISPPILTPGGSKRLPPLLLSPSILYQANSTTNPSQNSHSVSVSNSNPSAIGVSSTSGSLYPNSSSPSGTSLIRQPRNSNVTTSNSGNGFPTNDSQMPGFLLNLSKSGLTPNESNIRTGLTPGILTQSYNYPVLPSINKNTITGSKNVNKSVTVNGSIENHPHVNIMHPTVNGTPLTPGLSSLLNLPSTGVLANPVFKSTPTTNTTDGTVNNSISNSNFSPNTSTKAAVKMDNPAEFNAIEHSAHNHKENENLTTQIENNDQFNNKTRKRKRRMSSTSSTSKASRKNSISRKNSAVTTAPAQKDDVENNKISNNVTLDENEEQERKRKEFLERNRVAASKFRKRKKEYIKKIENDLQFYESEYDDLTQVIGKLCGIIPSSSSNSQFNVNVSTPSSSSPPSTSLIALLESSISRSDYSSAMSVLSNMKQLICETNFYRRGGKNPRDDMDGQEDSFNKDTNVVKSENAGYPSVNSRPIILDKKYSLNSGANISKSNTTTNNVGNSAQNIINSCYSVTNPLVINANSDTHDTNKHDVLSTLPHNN
Method in brief: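 Full-length yeast transcription factors or their DNA-binding domains, GST-tagged and expressed with PURExpress, were applied at about 100-200 nM to universal all-10-mer Agilent arrays. These arrays had been made double-stranded by primer extension on fresh or once-stripped slides. Detection used fluorescent anti-GST, normalisation used masliner, and E-scores for ungapped eight-base words pooled with reverse complements came from the Universal PBM Analysis Suite.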

Sequence | PBM E-score
ATGACTGG | -0.236
CCGTCCCG | -0.289
GCGGCGGA | -0.24
GAGATGGC | 0.0604
GTCCAGAA | 0.08
CACAGTTC | -0.0786
CACTTTCG | 0.232
CGTCACCC | 0.409
CATAGCGA | 0.0635
GTCCCTGA | -0.114
AGGTGGGG | -0.0914
AAAATGGC | 0.0932
GAACGAAC | 0.0231
AAAGTCCA | -0.146
AATCCCTA | -0.0231
AGGGCTAG | -0.201
ACTATCCT | -0.246
AGCCTGGA | -0.197
AGGGTCAG | -0.284
AGACAGAC | 0.192
CTCAACTA | 0.0152
GTAGACTA | -0.0529

Sequence | PBM E-score
ATATAGAA | 0.128
ACTTACCA | -0.0286
CCTTGGGA | -0.152
AGTCGAGG | -0.242
TAATAGAA | 0.161
ACCCCGAC | -0.302
CGGGCTAA | -0.314
AGTTGTCA | 0.0955
TAGACACA | -0.00663
TCTATCCA | -0.0632
ACTTATCA | 0.0219
ATAAGGGG | -0.124
TAATGCCA | 0.153
GCCTCAAC | -0.175
GAATCAAA | -0.0549
ATACTTAC | 0.214
CGATGCAG | -0.0971
ACTTCCTG | -0.135
AAGAAGAA | -0.00324
GCGATATA | 0.00689
ATGTCGCA | 0.222
CGGAACAC | 0.0493

Sequence | PBM E-score
AGTCGTTG | -0.0462
ATACGCGC | 0.188
CAGAGGGA | -0.267
CCTACCGC | -0.148
AGGTGTTC | -0.0318
CAGGGGGG | -0.241
AGCTATTG | 0.0351
GATAGAGC | -0.0529
TGCCAAAA | 0.0993
AAAGTTCA | -0.103
ACTTTACG | 0.379
CGTGGGAA | 0.00507
GTATTAAC | 0.112
TAGCGGAA | -0.157
ATCCACTG | -0.0759
ACAGCTAG | -0.262
ACCTTGCT | -0.242
ATATGGAT | 0.0267
CGGCACGC | -0.174
GGGGATCA | -0.215
CAAAGCAC | 0.0255
CTGTCTTC | -0.194

Sequence | PBM E-score
ACTTCGGG | -0.304
AAAGTCCC | -0.261
GGGCTTGA | -0.212
CCAATTGC | -0.0746
ACACAGGG | -0.0935
AACCTGAA | -0.164
CATGGCAA | -0.0238
TGCTGTAA | -0.0162
TTCAACAA | 0.126
CCAACTAG | -0.0007
GCCGAACA | 0.0478
AAATTATT | 0.252
CCCGAATA | -0.115
AAGTAGAC | -0.0421
CATAGTGG | -0.0579
AGAAGCAG | -0.144
ACAAGGTG | 0.0682
GACGAGGA | 0.122
CTCTGGTA | -0.133
AGCCGTGG | -0.139
